From the supplement of paper PMC3334620
In all, about 33,000 sequences were measured (“E-score (-0.5 to 0.5)”: median about -0.016, highest 2% from about 0.32 on). The list shows a part of the results.

Target: T1, Stp1 (UniProt B3LFK1)
T1 sequence: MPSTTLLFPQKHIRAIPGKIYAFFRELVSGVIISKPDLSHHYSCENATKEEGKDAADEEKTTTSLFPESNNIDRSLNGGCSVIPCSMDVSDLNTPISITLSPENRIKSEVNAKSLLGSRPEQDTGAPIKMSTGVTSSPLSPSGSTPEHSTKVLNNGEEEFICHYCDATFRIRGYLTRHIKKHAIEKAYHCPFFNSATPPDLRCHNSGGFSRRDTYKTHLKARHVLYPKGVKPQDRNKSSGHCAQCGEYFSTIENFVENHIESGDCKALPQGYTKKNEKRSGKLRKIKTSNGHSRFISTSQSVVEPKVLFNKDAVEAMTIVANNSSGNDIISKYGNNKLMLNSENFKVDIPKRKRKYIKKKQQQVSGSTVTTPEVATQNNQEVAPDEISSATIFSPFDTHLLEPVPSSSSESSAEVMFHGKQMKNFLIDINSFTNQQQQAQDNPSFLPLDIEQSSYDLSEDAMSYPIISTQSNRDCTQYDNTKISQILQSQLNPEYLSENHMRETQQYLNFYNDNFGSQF
Assay: PBM E-score (8-mer binding enrichment) (E-score (-0.5 to 0.5)); higher = stronger / more preferred TF binding; most listed sequences are background and not binding sites
Conditions: protein concentration: 200 nM; construct: GST-full length
Procedure, shortened: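 E-scores (a modified Wilcoxon-Mann-Whitney statistic) were assigned by the Universal PBM Analysis Suite to every ungapped eight-base word pooled with its reverse complement. The input came from universal all-10-mer Agilent arrays made double-stranded by primer extension and probed with GST-tagged yeast transcription factors at about 100-200 nM. Fluorescent anti-GST detected bound protein, and masliner normalised the scans.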

Row | Sequence | PBM E-score
1 | GGCGCTAA | 0.37
2 | CCTCTCAG | -0.276
3 | GACTCCGC | -0.0827
4 | CTTTGCAA | 0.0807
5 | AAATCGAT | 0.0462
6 | ACTTTAGG | -0.217
7 | ACCTAGAG | -0.171
8 | GTCGGGCA | -0.252
9 | AGTAGTTC | 0.0875
10 | AGGGTTGC | -0.295
11 | CAAGCGCC | 0.219
12 | CACAGGAC | -0.125
13 | ATAATATA | 0.255
14 | ATCACGTG | 0.181
15 | GAGTGCGC | -0.0794
16 | CGCTCCAG | -0.104
17 | AATTAATA | 0.304
18 | ACAACAAC | 0.0598
19 | ACTCAAAT | 0.125
20 | GACTTAAC | -0.259
21 | ACGCTGTG | 0.0617
22 | ATATGATA | 0.274
23 | GGGAGGTA | -0.145
24 | TCAGAGCA | -0.253
25 | AAATTCCA | 0.24

Row | Sequence | PBM E-score
26 | CATCAGGA | 0.154
27 | AGCCGCTA | 0.119
28 | AGGTGTCG | -0.0942
29 | CTGGCCCA | -0.0956
30 | CAACTTAC | 0.0481
31 | AGACACCC | -0.206
32 | AATCAAGC | -0.0362
33 | AGTGTCTG | -0.115
34 | ACTGATGC | -0.0227
35 | CCTCTCTC | -0.339
36 | CATAATCA | 0.169
37 | GAGGGTGC | -0.141
38 | AAGTTGAT | 0.0828
39 | CCGGCTTC | -0.0259
40 | TCGTGCAA | 0.288
41 | CGCATGAC | 0.0062
42 | AAGCTTCG | -0.124
43 | ACCCGGTC | -0.323
44 | ACTTATTC | 0.00886
45 | TGACCTAA | 0.0803
46 | CTTTCCGC | 0.0296
47 | AGGTGACT | -0.0726
48 | CATTAGCA | 0.0176
49 | AGGGGGCC | -0.227
50 | CCACATTC | -0.17

Row | Sequence | PBM E-score
51 | GCAGATCC | -0.048
52 | CCCAATAG | -0.0717
53 | AGCGTTTC | -0.0071
54 | GGTAGGTA | -0.264
55 | GCGTCCGA | -0.142
56 | CTAAGATC | -0.0434
57 | AATAATTA | 0.197
58 | ATGGGCGG | -0.0281
59 | AAGTATGG | -0.0353
60 | ATTAGTAC | 0.0504
61 | ATCCTGTG | -0.105
62 | CCAGTCGG | -0.144
63 | GATAGACA | -0.0511
64 | GAATGTAA | 0.147
65 | CGCGCTAA | 0.227
66 | CGAGCACA | 0.0835
67 | AACGGAAT | 0.228
68 | ACAGCCGA | -0.0659
69 | AGCCTTTG | -0.0934
70 | ACGTAGCA | -0.105
71 | CGCCTTCC | 0.206
72 | AAGGTTAA | -0.0262
73 | CGACGACC | -0.121
74 | GGCGGATA | 0.0304
75 | AAACATTC | -0.077

Row | Sequence | PBM E-score
76 | AGCCGGAA | -0.0322
77 | AGATTAGG | 0.0214
78 | CGTGCGTA | 0.18
79 | GCCAACCA | -0.0582
80 | ATTCCAAC | 0.074
81 | GCCCGGCC | -0.184
82 | ATAGCTTC | -0.113
83 | GATACTAC | 0.0826
84 | CGGTAATA | 0.0511
85 | CTCGGGTC | -0.078
86 | AGGAGGCC | -0.197
87 | GAATATAA | -0.0429
88 | AGTAGGCA | 0.225
89 | ACGACTCG | -0.171
90 | TCACGACA | 0.0423
91 | CCTCTCCG | -0.0745
92 | AGTGACAA | -0.132
93 | CCCAAAGC | -0.151
94 | TTACGAAA | 0.091
95 | AACTATTG | 0.129
96 | AAGCCATT | 0.0834
97 | AGTAACCC | -0.173
98 | CGATATCG | 0.059
99 | CCCTCAAC | -0.0619
100 | CAGGTAAC | -0.249

Row | Sequence | PBM E-score
101 | CGTATCTA | 0.0863
102 | ACAGAAAC | 0.22
103 | GAAACCTC | -0.167
104 | AGGAGTGC | -0.00186
105 | AGATGAGG | -0.192
106 | GGTGCCGA | 0.288
107 | CTAGAAAC | -0.0852
108 | ACGGTCGG | 0.0266
109 | TGATCGCA | -0.15
110 | AAGAAAGA | -0.0298
111 | AATGCCCT | 0.212
112 | AGCTCTCG | -0.245
113 | ATCTGACA | -0.171
114 | CCATGTAG | -0.0141
115 | CGTAGTAC | 0.0489
116 | AGGGGAAG | -0.273
117 | CCTGTGTC | -0.215
118 | GATCGGGA | -0.275
119 | CTAAATAG | 0.11
120 | AGTCAATG | -0.168
121 | ATATACAC | -0.00026
122 | AACAACGG | 0.182
123 | AAAGGGGT | -0.245
124 | CCTACTTC | -0.0244
125 | CTGCATCA | 0.0593

Row | Sequence | PBM E-score
126 | CCGCTCAA | 0.135
127 | AGACACTG | -0.0839
128 | GCCTCCGA | -0.0504
129 | ATCAGCGC | 0.102
130 | CGACGTGA | -0.0134
131 | ATCTCAAG | -0.0821
132 | AGGCTTGA | -0.161
133 | ATAAGGCG | 0.365
134 | CGGTCAAA | 0.149
135 | GGAGGAAC | -0.222
136 | AGCTCAAA | 0.0552
137 | CAAGACTC | 0.0544
138 | CATCGCGA | 0.0657
139 | CCGGTCAA | -0.0349
140 | CGGCACCC | 0.338
141 | CCTCAGTA | -0.244
142 | AATCATTA | 0.0799
143 | CCAGTTCA | 0.0872
144 | GAGGATAC | -0.0295
145 | ACCAGCCG | -0.0724
146 | ACTTGAAT | 0.0207
147 | CGACCTCC | -0.155
148 | CGTAGTCA | -0.185
149 | TACAGAAA | 0.212
150 | CAGGTGGC | 0.00875

Row | Sequence | PBM E-score
151 | ATAGTTGC | -0.0822
152 | ATGGCGAA | 0.139
153 | ATGCAGAG | -0.18
154 | ACCCCCTC | -0.468
155 | CCATGGTC | -0.0484
156 | GACAACTC | 0.0102
157 | AAAAACAA | 0.109
158 | CGTCCTCA | 0.0374
159 | GGCTGAGA | -0.0639
160 | AGCTGGGG | -0.258
161 | CAGCCCCC | -0.326
162 | CTGGGAGA | -0.226
163 | ACGAATTC | 0.0899
164 | CGCACCAA | 0.213
165 | GGGATCGA | -0.0166
166 | ACCGTACC | -0.0289
167 | GTACCGAA | -0.0115
168 | CACGGCTG | 0.363
169 | GTCCATCA | -0.198
170 | AGGTCCCG | -0.146
171 | GTAAGGCA | 0.306
172 | ATATGGAG | 0.258
173 | GATCCCGA | -0.101
174 | CCCCCGGC | -0.376
175 | ATCCGTAC | 0.28

Row | Sequence | PBM E-score
176 | ACATGCAA | 0.0556
177 | CCTCGCGA | 0.152
178 | AGGCGGTC | -0.102
179 | ACAAGTGG | 0.00648
180 | CGATGAAC | -0.157
181 | GGCCCACA | -0.0997
182 | GGACCACC | -0.29
183 | CCTGTTTA | 0.0663
184 | CACGTGGC | 0.213
185 | CGAGTAAG | 0.122
186 | GACAATCA | -0.0163
187 | CTTAAACC | -0.224
188 | GAGGAGGC | 0.00167
189 | AACACGGT | -0.0276
190 | CTGAAACA | 0.0582
191 | ATGGTAGA | 0.0876
192 | AGTATTTA | 0.112
193 | AGCTAGCT | -0.121
194 | GCGATGAA | 0.0727
195 | CTTCAAAC | 0.0173
196 | AGCTAGTA | -0.079
197 | AGGATACG | 0.148
198 | AGAAATAC | 0.0854
199 | CTAACGGA | 0.0439
200 | GGAACATA | -0.0615

Row | Sequence | PBM E-score
201 | AACAAATT | 0.232
202 | CTTTCTTC | -0.0626
203 | CGATGTAG | -0.0761
204 | GAATGAGA | -0.0008
205 | AGCATGGG | -0.254
206 | GAAAAGTA | 0.151
207 | AAGTTTCC | 0.151
208 | TTGCGAAA | 0.233
209 | GGAGTGCA | -0.0113
210 | AAGCAAGC | -0.0899
211 | GTAAATAC | 0.0373
212 | AGTGAGCG | -0.0787
213 | AATGTGCA | 0.0581
214 | GCCTGCAA | -0.134
215 | AGTGTAGC | 0.0315
216 | CGCTACTC | -0.109
217 | ACTTCGAT | 0.125
218 | AAGGGGTG | -0.18
219 | CTAGAGGA | -0.197
